Measurements taken from the BET-seq Pho4 binding data (Le et al. 2018).
The other results are listed elsewhere or left out. These are noisy estimates, calculated here from bound and input reads.

Target: T1, Pho4 (S. cerevisiae) (UniProt P07270)
T1 sequence: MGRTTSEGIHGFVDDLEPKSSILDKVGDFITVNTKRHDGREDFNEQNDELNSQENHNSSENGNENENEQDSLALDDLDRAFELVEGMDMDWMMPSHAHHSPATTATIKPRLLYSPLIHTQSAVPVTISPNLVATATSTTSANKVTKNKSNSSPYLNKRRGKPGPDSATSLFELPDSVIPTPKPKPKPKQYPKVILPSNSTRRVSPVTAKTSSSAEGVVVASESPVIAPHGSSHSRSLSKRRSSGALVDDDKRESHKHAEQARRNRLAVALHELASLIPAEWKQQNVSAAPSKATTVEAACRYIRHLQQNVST
Assay: relative binding free energy (BET-seq); higher = weaker binding
Conditions: reference: library average

| Sequence | relative binding free energy |
| --- | --- |
| AAGGTCACGTGTGGGA | 0.18 kcal/mol |
| TCTTGCACGTGCTTTT | -0.01 kcal/mol |
| GCGATCACGTGATTGT | 0.5 kcal/mol |
| GTGAGCACGTGTTGCA | -0.1 kcal/mol |
| ATTGTCACGTGTTACA | 0.06 kcal/mol |
| ATTCACACGTGTATGG | 0.16 kcal/mol |
| GAGGTCACGTGTATTA | 0.36 kcal/mol |
| AAGTTCACGTGCAGTG | 0.22 kcal/mol |
| GTTTGCACGTGGGTAA | -0.01 kcal/mol |
| GAGGACACGTGAGGTC | 0.32 kcal/mol |
| TAAGTCACGTGGCATA | 0.11 kcal/mol |
| AGTGTCACGTGACCGG | 0.15 kcal/mol |
| TGGAGCACGTGTCTGT | -0.2 kcal/mol |
| TGGAGCACGTGTGGGC | -0.04 kcal/mol |
| AGGGTCACGTGATAGG | 0.23 kcal/mol |
| CGAGACACGTGGTGTT | 0.01 kcal/mol |
| AAGTTCACGTGAGAGG | 0.27 kcal/mol |
| CCGGGCACGTGATGGT | 0.01 kcal/mol |
| CGTCGCACGTGGTAGG | 0.01 kcal/mol |
| GGGAACACGTGCGAGT | 0.07 kcal/mol |
| ATAGTCACGTGAGTCG | 0.12 kcal/mol |

| Sequence | relative binding free energy |
| --- | --- |
| GGGGACACGTGGTGTC | -0.03 kcal/mol |
| TAGGTCACGTGATCTG | 0.1 kcal/mol |
| ATGGACACGTGGATTG | 0.02 kcal/mol |
| GGCTTCACGTGAGTAG | 0.5 kcal/mol |
| TGGCACACGTGATTGG | 0.15 kcal/mol |
| GTTTACACGTGTGCGC | 0.28 kcal/mol |
| GTTCGCACGTGGGTTT | -0.12 kcal/mol |
| CTTTTCACGTGGGCTT | 0.19 kcal/mol |
| AGGGTCACGTGGAAGA | 0.01 kcal/mol |
| TTAGGCACGTGTTATT | -0.18 kcal/mol |
| TGGTACACGTGAGTGT | 0.24 kcal/mol |
| TGTGGCACGTGACGCT | -0.05 kcal/mol |
| TGTGGCACGTGGCAAG | -0.1 kcal/mol |
| AATTACACGTGGTTTT | -0.01 kcal/mol |
| AATGCCACGTGGTTGA | 0.01 kcal/mol |
| AGTAGCACGTGGATAT | -0.03 kcal/mol |
| GTGGCCACGTGGATAG | -0.1 kcal/mol |
| TTAATCACGTGTCGAT | 0.09 kcal/mol |
| AAGTCCACGTGATGTG | 0.21 kcal/mol |
| TGGGACACGTGGGGCG | -0.12 kcal/mol |
| TGAGTCACGTGCTGGC | 0.13 kcal/mol |

| Sequence | relative binding free energy |
| --- | --- |
| GAAATCACGTGTCGGG | 0.23 kcal/mol |
| ATTAGCACGTGGGGTA | -0.3 kcal/mol |
| TTAAACACGTGTGGCT | 0.03 kcal/mol |
| AAGGACACGTGCGTGT | -0.03 kcal/mol |
| TTTATCACGTGGAGTT | 0.21 kcal/mol |
| TAGTGCACGTGTGAGC | -0.04 kcal/mol |
| AGTAACACGTGTTGTA | -0.1 kcal/mol |
| TGAGGCACGTGGATAG | -0.16 kcal/mol |
| TGTGACACGTGTATTT | 0 kcal/mol |
| CGGTTCACGTGTTTCG | 0.3 kcal/mol |
| TCGGGCACGTGGTTTT | -0.06 kcal/mol |
| GGTTGCACGTGTAATA | -0.02 kcal/mol |
| GGGTGCACGTGTATAC | -0.05 kcal/mol |
| GGGCGCACGTGGGGCC | -0.17 kcal/mol |
| GTGTGCACGTGTGTCA | 0.03 kcal/mol |
| GACGTCACGTGAGGGA | 0.31 kcal/mol |
| AAGTACACGTGGGAGG | -0.15 kcal/mol |
| GTCAACACGTGGGGTC | 0.13 kcal/mol |
| ATTGCCACGTGGCGGT | -0.14 kcal/mol |
| ATTGTCACGTGTCCTT | 0.06 kcal/mol |
| GGTGTCACGTGAGGTA | 0.21 kcal/mol |
